The supplement of paper PMC10369915
This is one part of the list. No stated cut-off is given here; in the data, active = 3.2 or more and inactive = the rest. The signal is at background level for most entries.

Experiments:
Assay in all cases: enrichment score (SH2-bound / input frequency) (ratio); bacterial display of known human phosphotyrosine sites (pTyr-Var adds point mutants) read by sequencing; higher = stronger binding; tyrosines were phosphorylated by kinases first
Details in all cases: peptide library: pTyr-Var
SHP2 C-SH2 domain E139D = biological target: SHP2 C-SH2 domain E139D
[1] = biological target: SHP2 C-SH2 domain wild-type
SHP2 N-SH2 domain L43F = biological target: SHP2 N-SH2 domain L43F
SHP2 N-SH2 domain T42A = biological target: SHP2 N-SH2 domain T42A
SHP2 N-SH2 domain T52S = biological target: SHP2 N-SH2 domain T52S
[2] = biological target: SHP2 N-SH2 domain wild-type

Measured: enrichment score
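Further: displayed peptides selected on beads carrying the immobilized SH2 domain, with library peptides lacking any tyrosine serving as negative controls.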

HTLIKYTDGDQ [PUS7L_Y94]
inactive: SHP2 C-SH2 domain E139D 1.43 | [1] 1.31 | SHP2 N-SH2 domain L43F 1.41 | SHP2 N-SH2 domain T42A 0.701 | SHP2 N-SH2 domain T52S 1.09 | [2] 1.14

TFEPNYGTVKQ [RAPGEF6_Y1447_YF]
inactive: SHP2 C-SH2 domain E139D 0.396 | [1] 0.626 | SHP2 N-SH2 domain L43F 0.531 | SHP2 N-SH2 domain T42A 0.564 | SHP2 N-SH2 domain T52S 0.589 | [2] 0.567

RRVLVYGDRGA [QDPR_Y16_G18D]
inactive: SHP2 C-SH2 domain E139D 0.358 | [1] 0.235 | SHP2 N-SH2 domain L43F 0.309 | SHP2 N-SH2 domain T42A 0.339 | SHP2 N-SH2 domain T52S 0.291 | [2] 0.288

TAPFNYSFIFK [RAB14_Y8_YF]
inactive: SHP2 C-SH2 domain E139D 0.681 | [1] 0.82 | SHP2 N-SH2 domain L43F 0.575 | SHP2 N-SH2 domain T42A 1.21 | SHP2 N-SH2 domain T52S 1.09 | [2] 0.645

IVEYAYNDKAV [PUM3_Y259_I264V]
inactive: SHP2 C-SH2 domain E139D 1.01 | [1] 0.889 | SHP2 N-SH2 domain L43F 0.772 | SHP2 N-SH2 domain T42A 0.749 | SHP2 N-SH2 domain T52S 0.825 | [2] 0.948

RRVPVYGGRGA [QDPR_Y16_L14P]
inactive: SHP2 C-SH2 domain E139D 0.249 | [1] 0.28 | SHP2 N-SH2 domain L43F 0.346 | SHP2 N-SH2 domain T42A 0.281 | SHP2 N-SH2 domain T52S 0.338 | [2] 0.16

IVEFAYNDKAV [PUM3_Y259_I264V_YF]
inactive: SHP2 C-SH2 domain E139D 0.678 | [1] 0.598 | SHP2 N-SH2 domain L43F 1.12 | SHP2 N-SH2 domain T42A 0.612 | SHP2 N-SH2 domain T52S 0.922 | [2] 0.941

ENRKYYMDLKE [PURA_Y156]
inactive: SHP2 C-SH2 domain E139D 0.777 | [1] 0.91 | SHP2 N-SH2 domain L43F 0.695 | SHP2 N-SH2 domain T42A 0.621 | SHP2 N-SH2 domain T52S 0.673 | [2] 0.832

HTLMKYTDGDQ [PUS7L_Y94_I92M]
inactive: SHP2 C-SH2 domain E139D 0.81 | [1] 0.823 | SHP2 N-SH2 domain L43F 0.813 | SHP2 N-SH2 domain T42A 0.706 | SHP2 N-SH2 domain T52S 0.715 | [2] 1.02

EFSNQYKATIG [RAB7A_Y37_K32E]
inactive: SHP2 C-SH2 domain E139D 0.929 | [1] 0.808 | SHP2 N-SH2 domain L43F 0.608 | SHP2 N-SH2 domain T42A 0.542 | SHP2 N-SH2 domain T52S 0.713 | [2] 0.811

TGILLYGLASR [QARS1_Y57]
inactive: SHP2 C-SH2 domain E139D 0.942 | [1] 0.857 | SHP2 N-SH2 domain L43F 0.79 | SHP2 N-SH2 domain T42A 0.567 | SHP2 N-SH2 domain T52S 0.881 | [2] 0.794

RQQEDYLLFKQ [RARRES1_Y159_YF]
inactive: SHP2 C-SH2 domain E139D 0.936 | [1] 0.774 | SHP2 N-SH2 domain L43F 0.884 | SHP2 N-SH2 domain T42A 0.544 | SHP2 N-SH2 domain T52S 0.693 | [2] 1.01

RQQEDYLLYKQ [RARRES1_Y159]
inactive: SHP2 C-SH2 domain E139D 1.13 | [1] 1.11 | SHP2 N-SH2 domain L43F 1 | SHP2 N-SH2 domain T42A 0.874 | SHP2 N-SH2 domain T52S 0.746 | [2] 1.14

AASHRYDLGGL [QPRT_Y162]
inactive: SHP2 C-SH2 domain E139D 0.78 | [1] 0.794 | SHP2 N-SH2 domain L43F 0.787 | SHP2 N-SH2 domain T42A 0.624 | SHP2 N-SH2 domain T52S 0.752 | [2] 0.85

QRDSSYYWEIE [RAF1_Y340]
inactive: SHP2 C-SH2 domain E139D 0.942 | [1] 1.01 | SHP2 N-SH2 domain L43F 0.991 | SHP2 N-SH2 domain T42A 1.09 | SHP2 N-SH2 domain T52S 1.11 | [2] 1.35

SSQHRYSTPHT [RAF1_Y232_A237T]
inactive: SHP2 C-SH2 domain E139D 0.754 | [1] 0.681 | SHP2 N-SH2 domain L43F 0.66 | SHP2 N-SH2 domain T42A 0.607 | SHP2 N-SH2 domain T52S 0.639 | [2] 0.904

IVEYAYNDKAI [PUM3_Y259]
inactive: SHP2 C-SH2 domain E139D 0.842 | [1] 0.973 | SHP2 N-SH2 domain L43F 1.01 | SHP2 N-SH2 domain T42A 1.02 | SHP2 N-SH2 domain T52S 0.909 | [2] 1.1

RGESFYQDRMN [RARS_Y338]
inactive: SHP2 C-SH2 domain E139D 0.727 | [1] 1.08 | SHP2 N-SH2 domain L43F 0.813 | SHP2 N-SH2 domain T42A 0.78 | SHP2 N-SH2 domain T52S 0.516 | [2] 0.979
